# Laboratory results from the supplement of paper PMC11417369.
# Some of the results follow.
# Test system: PF3D7_0420300 AP2 domain 1 (GST-tagged)
# Assay: gcPBM binding intensity (ln(normalized median fluorescence intensity)); higher = stronger DNA binding
# In short: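 Alexa488 anti-GST antibody, scanned at 488 nm, detected GST-tagged P. falciparum DNA-binding domains that had been expressed in E. coli and incubated for 1 h on an Agilent 4 × 180k array. The array carried primer-extended double-stranded 36-bp intergenic genomic probes and negative controls. Binding intensity is the highest Masliner-normalised natural-log median intensity across replicate spots of either orientation of each probe.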
row,Sequence,gcPBM binding intensity (ln)
1,GACATATAAATATACACACATACGTAAGTATATTAA [CACACA_site1790],9.38
2,ATTGAATATGGATATGTGCACATATGTATATAAGTA,9.43
3,ATATATATACTGTGTACACACATATGTATTTATATA [CACACA_site4600],9.6
4,AAAACATTGTTGAACTGTTTTATTTATAAATATAAG [XGTACX_negctrl_site393],8.92
5,TCGTGTTAAACTTTTACACACAAACTTGCAATAATT [CACACA_site7745],9.59
6,TAATAACTACAAAAAAAAAAGAAAAATAGAAAAAGG [CACACA_negctrl_site1102],9.55
7,TTTGTTTAAATTAAATGTACATAAAGAATAATATAT [XGTACX_site5093],9.05
8,TGCTTTATTATTTATTGTACATGTAAAATGAGAGAG [XGTACX_site2288],8.99
9,AGAAGGTAAATAATTTACCCATATATATAAATATAT [GTGCAC_negctrl_site631],9.09
10,AATTATATGAAATAAACACACATATGTAATATTACA [CACACA_site1928],9.45
11,TTATTATTTCTTAGTAGTACTATATAATTTTTTTTT [XGTACX_site1847],9.26
12,ATAGTATCTGGTAGCTGTACGAGTCGTAGAGAGTAG [XGTACX_site2546],9.41
13,ATATATCTGTATGGCACACACGGATAAATATATATA [CACACA_site4668],9.52
14,TGTATTTAGAAACATACACACATATTAAGTTTACAT [CACACA_site5689],9.49
15,GGAAAATTATCAATAGCATGCAAAATGTGAATATTA [TGCATGCA_site901],9.3
16,TTTCCTCATTTTATCATACACACTTATTTATATGTG [CACACA_site900],9.49
17,GCCAAAATATAATTTACACACTTATTAAATAATTAT [CACACA_site236],9.36
18,AGAATAATACAAAAATGTACATTAATAAAAAGATAG [XGTACX_site780],9.65
19,TAAATAATATCCCTTTGTACGTATTTTTTTTTATTA [XGTACX_site7303],9.46
20,CGTTATATATGTATTACATGCAATATATGTACGTAA [TGCATGCA_site274],9.16
21,GAAATAAGTTAAAATAGTACGTAGTGTTCCTTAAGT [XGTACX_site6557],9.38
22,TTAGGAAAACAAAAATGTACGCATATATATTATTGA [XGTACX_site8288],9.27
23,TTAAAAATAATATATTGTACACATACTTATTTTAAT [XGTACX_site1348],9.13

row,Sequence,gcPBM binding intensity (ln)
1,TTTTTCTTTTGATGTTGTACATATATATCATATAAT [XGTACX_site1189],9.22
2,GTGCATATACAAATATGTACTTAAACGTTTTTTTTT [XGTACX_site7362],9.2
3,AAGACTTCTCCATATACACACACCAACAAATATAAA [CACACA_site2779],9.57
4,GTTTATTCATCATACGGTACACATAAATAATATATA [XGTACX_site6931],9.37
5,GATGAATAAATCAAAGCACACATACACCCACATATA [CACACA_site7986],9.89
6,ATTTTTTTTTTTTTTTTTTGGTTTTCTTTAGGAGTT [CACACA_negctrl_site1258],9.3
7,TTCGTTTAAATCAAGTGTACATATTATATATAATAT [XGTACX_site7599],9.17
8,TTTCTTAAAATGTTATGTACATATTTCGTTTCAAAG [XGTACX_site6102],9.01
9,ATATATTTCAAAGGGGTGCAGGCATATTTAAGCAAA,9.26
10,TCTTTTTAATTTATATGTACTTATATTAATTATAAG [XGTACX_site7524],9.15
11,TGAGCTTCAACAATATGTACATAAAATATATTACAT [XGTACX_site4763],9.13
12,TTAATAAAAGCCCATGCACACCTTAGAAAGTTTTAT [CACACA_site8003],9.21
13,GTATTATAGTATAATACACACCCAAATATTAAAAAG [CACACA_site7404],9.5
14,AAAAAAAAAAAAAAAGCACACATCATATTATAATTC [CACACA_site3355],9.55
15,AGTTATTAAAAATGTGCATGCAATGGTTTCTCTTAA [TGCATGCA_site634],9.2
16,AAAAAAACATAACAAAATGAAACAAAACAAAAAGAA [GTGCAC_negctrl_site577],9.93
17,ATTTATAATGATTTTTTTAGTAATCTTGTTATTTTT [XGTACX_negctrl_site373],9.27
18,TCTTTTTTTTCTTTTTTTTTATTTAAATATCAAGTA [CACACA_negctrl_site1354],9.15
19,AGGAGGTCAGTTCACAGTACCCAGAAACTCTACGAG [XGTACX_site2006],8.87
20,GTATGTATATATATATGTACATACTGTTTATCGTTA [XGTACX_site6168],9.37
21,AACGAAAACACTACGTGTACCAAACGTCCTACTAAC [XGTACX_site4915],9.34
22,GTATATATTTTTATTTAATAATTTGTTTATTTATTC [CACACA_negctrl_site647],9.41
23,CATACATATACATACAGTACATATTTTTTGTCAATT [XGTACX_site7357],9.29

row,Sequence,gcPBM binding intensity (ln)
1,TTATATGGCTCCATTTGTACGCATCCATGTTTTTAT [XGTACX_site6590],9.55
2,CTAATGATCATATATACACACACACTAATAAAAAAA [CACACA_site9329],9.97
3,TATATTTAGATATATACACACATTAGCATTTTCATA [CACACA_site6902],9.4
4,AAAGAATTTGCATATACACACAAAAAGATATATACA [CACACA_site6318],9.54
5,CATAATACAGATAACACACACAATTATACATAAAAT [CACACA_site5742],10
6,TTTCACTTTTTCCAAAGTACATATATAAAAATTAAT [XGTACX_site6947],8.84
7,TTTTAATAAATATACACACACAAAAAAAAAAAAAAA [CACACA_site3971],9.47
8,AATATATAGAAACACACACACAAAAAAAAAAAAAAA [CACACA_site1326],9.83
9,AATAAAAAGACATTCACACATATATATTATTTATAT [CACACA_site5936],9.4
10,AGATTATAAAATTCTACACACATATATACATATATA [CACACA_site3485],9.52
11,GACCAATTCAAATATGCACACAAATTTGAAAACGAT [CACACA_site9202],9.43
12,ATATAAAAAAAAAAAAGTACACATAAACAAATGCAT [XGTACX_site4241],9.41
13,ATATGTAGAAGTAATGCACACATATGTATATATATA [CACACA_site8796],9.57
14,TTAAAATATAATATTCGTACTTATTCAAAAGAAAAA [XGTACX_site2122],8.75
15,TATATATATATATAATGTACATATATATAATATACA [XGTACX_site1552],9.16
16,ATTTCTACTAAAAATACACACGATGATACAACGAAG [CACACA_site1755],9.58
17,ATAATGTAAAAGTAAACACACACATATATATATACA [CACACA_site8793],9.88
18,GTCTTAAAAATTAAAACACACGTTCACTTTCATATT [CACACA_site5803],9.59
19,AATTAATAACAAAATAAACACACATATATAAATACA [CACACA_site8456],9.84
20,ACCTCATAATATTTAACACACAAAATTAAATGTATG [CACACA_site6898],9.5
21,TTTCAAAAAAATAATGTGCACATTAGAAAATAAATA [GTGCAC_site9416],9.2
22,ACATATATTTAAAAATGTACTTACATATATTTTTTA [XGTACX_site6050],9.07
23,TTTTATACATATTTTACACACTAAAATATACATATA [CACACA_site324],9.33

row,Sequence,gcPBM binding intensity (ln)
1,GAAGTATTTATTTATGCATGCAAATATACAAAAAAA [TGCATGCA_site975],9.01
2,TTATGTTGTAAATGCACACATACATAAACTCAGTTT [CACACA_site5639],9.38
3,TAAATATTTTTAGATGCATGCAATAATTACCCAAAG [TGCATGCA_site636],9.22
4,TTTTTTTTTTCTGAAAGTACTAATTTCCTGGAGGAA [XGTACX_site759],8.6
5,TTATTATTATTACTAGTGCATTAATTATATATGTAA,9.19
6,ATAAAATAAATATTTTGTTATTTATTTAATCTAATA [XGTACX_negctrl_site404],8.82
7,AAACATAAGAGACACACACACATATATAAATAAATA [CACACA_site7674],10.2
8,AAAAATAAAATAAAGAAGGAAAATAAAAAAATAAGG [CACACA_negctrl_site1811],9.43
9,AGGAGGTCAGTTCACAGTACCCAGGAAATCTACGGA [XGTACX_site2552],9.06
10,AATTTCATAAATATAACTGAGAATAAATAAACAAAG [GTGCAC_negctrl_site146],9.34
11,CCTGTAAATAAATATAAATACATATTTCTAATATAT [GTGCAC_negctrl_site21],9.01
12,GTATATATGTATATATGTACATATATACATTTTGTT [XGTACX_site7320],9.34
13,CGTTAAAGGGAATGTATACACACGTTTCTCTATGTT [CACACA_site1198],9.55
14,TTAAATAATATTAAATGTACATATTATTATGATATA [XGTACX_site6189],8.94
15,TTATAACAACTGGAATGATTAACAATAAATATTAAA [CACACA_negctrl_site1723],9.19
16,TATATATTTAACAATCGTACATATTTACAAATATAA [XGTACX_site2131],8.99
17,ACAGAAAAAAAACACACACACATAATATACATACAT [CACACA_site1932],10.2
18,TATACATATATAAATGCATGTTGATATTAATAGTTA [TGCATGCA_site639],9.05
19,AGGAGACTTAAAAAAAGTACAAAAAAAAAAAAAAGC [XGTACX_site1576],9.65
20,TATTTTTTTTTCTTTTTATATATAATAATCTTCATT [GTGCAC_negctrl_site80],9.24
